Test results reported in the RNAGym collection of RNA variant scans (doi:10.7554/elife.90254).
Read counts are not given, so values of variants with three or more changes are uncertain.

B1: LINE1-mini (parent)
chain: GGCAGAGCUCAACACAGCGUGGCAAAGUGGCUGUGGCUAGACUGCC

Variants of: B1
Assay: self-cleavage, relative activity (ratio to wild type); higher = more cleavage; in vitro, sequencing; the parent is a self-cleaving ribozyme

Variant	self-cleavage
G7U U9A G19U G30A	0.17
A16U C18A C31U C45A	0.02
A11G C18A C31U C45A	0
U9C A25U C31U	0.01
C8U U28G G29U	0.08
A4G G21U U32A	0.04
A6U A12U C13A C23U G27A G33C G44A	0.09
C13A G17A U32G	0.03
A11C G30A C42A	0.01
A16C U28C U34A	0.01
C18A A24G C45U	0.24
C18U U20A C42G	0.04
G1U C37A U38A	0.09
G7U C10A A11U	0.04
C3G A6U G44A C45U	0.68
C15U C31U G33A G36A	0.05
G5U G27C C31G C45U	0.01
A6G G27U G29C	0.02
G21U G35A U38G	0.03
G1U C13A A25C A41C	0.03
A25C U38A A39G	0.04
C13A A14C C37A G44U	0.09
G5C A26C G30A	0.04
G21A U34C G44A	0.06

Variant	self-cleavage
G22C G27A G40A	0.15
G2A G7A G35A	2.05
G5C C8G U9C C10A A26C	0.01
G19U U34A G40A	0.03
A11U C15U G17U	0.02
A25G G36A C37A	0.06
C3A A11U G35U C37U	0.05
A12C G17C A24C C31A U38A	0
C10U A12U C13U G22A	0.06
A12G G17U C18A	0.05
G7U A12G A39C C42G C45G	0.1
G5A A6U A16U C18U G44A	0.08
G5A U9A G19C U32G	0.01
C10A A16G C42A C46G	0.02
G17U U20C A26G G35U C45U	0.02
C15G C23A G44C	0.02
G1A A24U C37A	0.11
G5A G17A G33U C46U	0.02
A11C A14U C15U C18G	0.02
A4C G19C G44A	0.07
A25G G30A U38G G40U C45U	0.02
C8A C31U G33A C37A C46A	0.08
G2U C8A A24U C31U C37A	0.05
G7A U32C U38G G40A	0.01

Variant	self-cleavage
G5U U9G C37U A39U C42G	0.05
A6U U9G G17U G35A G36U C37G	0.02
C18A G21U C37A	0.09
G2A A6G G19C C46G	0.09
G7U C15A G27C C46G	0.11
U9A C31U U32G C42A	0.08
G22U G30A U43C	0.24
G1U C10G A11G C23U G30A C37U	0
A11C C13U U20A U32C	0.01
G21C A25U A26C U38C	0.56
A26U G40A U43C	0.06
G1A G27U G35C A39U C42G	0.03
C3A C31A U34A C46G	0.09
C15U G17A A25C G35U	0.02
A4G G30A G35C G44U	0.07
A24U A26U G33C U38A A41U	0.03
A4G A12U G19U	0.02
C3G A24C C42U	0.15
G1A G17C C37G A41C	0.06
G2A A4U G19U A25C G27U	0.19
C3G G7C C13G G36U	0
A6C A14U G19U	0.44
A4G A11G A25C	0.04
G29A U38C G40A	0.14

Variant	self-cleavage
C13G U20A U28G G30U C45G	0.04
G2C C3U G27A	0.62
G2U U28G G35U C45A	0.02
G17U U20A A24C G29U G36A C46U	0.02
G7U G22U C37G	0.01
C8U C15G G30A	0.07
G1U G21A G27U U34A	0.17
G2C A12G C13A	0.03
C10A G30A U38G C42U G44A	0.01
C10A C13G C18G G19C	0.02
U9C G17U G36U C45G	0.02
A16C G27U U28G	0.1
A4G C8A G21U G35C	0.25
G17A G35U G40A	0.14
A6C G22U A26U C42A	0.04
C3U G21U A41C	0.03
G2U A24G A41U	0.08
A4G C8A C23A G27A G30A C37G	0.31
C15U G22U C31A U38C U43G	0.02
A12C A24U A26C G29U	0.02
A11U G19A G27U G35C	0.01
G21U C23G C42U	0.82
A6U C8A G19C U43G	0.03
G1A A24G G29U U32A	0.09

Variant	self-cleavage
G29C U32C G33C	0.05
A12C G27A A39U U43A	0.02
A11U A16U G29U C42A	0.01
G2A G7U A25U C37A	0.03
C15U U38C A41C	0.17
G2A G21U A24C C37A G40C	0.31
U20A U28C C42U	0.07
G2A U9A U34G	0.18
G19C A26G U43A	0.01
G21A A24C U43G	0
G5U A16U C42A	0.01
G7C C18U G27U G30U	0.04
G2U U9A G17C G29A	0.06
A6G C23U A24C G40C	0.08
U32C G36C U38A	0.29
C10G C23G A41G	0
C10U A11G C13G G22U G30U	0.01
C3A G30U C31U G40U A41G C46A	0.29
G7C C31U G33A G35U	0.1
A25G C37A A41U	0.16
G2A C13A U20A G29U	0.16
G1C A25U A26U C31A G33A	0.02
G7A G27C G35A A39U A41G	0.01
A12C G27C A41U C42A	0.02

Variant	self-cleavage
U20G U28G C45U	0.22
C10U A14U G33A C37A C45U	0.04
U9C C10A G19A U20G G21U	0.01
G5U U9G A39G	0.13
G5A A11C C13U U28C	0.05
A11U C18A C42A	0.01
U9C A12U A16U U32C G35A	0.02
C3U A11U A12U U38G	0
C15U A24U G29C	0.55
C8A A14C G40A G44U C46A	0.13
G2C C3A C8A A24C	0.16
A4U G17C G19A A41G	0.1
G7U C10G A12U C18A G36C	0.01
G2C A11U G19U A25C C37G	0.01
C3U C13A C15U C23U C37A C42A	0.89
G19C C45A C46G	0.46
G2U C10A A39U G44U	0.01
C3A C15U G27U	0.46
A12U A25C G40A C46A	0.03
G7A C8A G17C U32C	0.01
G29C G30U C37G	0.05
C13U U28G C31A	0.02
A6G U28A G36A	0.03
G2A A16C C23G	0.08

Variant	self-cleavage
C13G G19A U20G G44A	0.01
C8U G33U G40C C42A	0.43
C3A G29C U38C	0.11
G22U G27A U43G	0
C10A C13G U28C G29U	0.02
G5A U20A G33U G36C	0.04
A6U U9A C15A G27U G29U	0.1
G5A A6G C10G C45A	0.01
A12C A25C C37A	0.01
G30U G35U G44C	0.05
G2U C3G C13A A14C G22C	0.04
A24G U32A G40A	0.07
G2A C10A A24G U38G C46G	0.08
G1U G7A U9C A11U G21A G22A	0.03
G1U A12C A14G	0.01
G1U C13A G35C	0
G7A U9G G30A A41G G44A	0.04
G2A A11U G29C G40U G44U	0.04
C8G C13A G27U A39U	0.1
G19C C37U U38A	0.04
G5A G7A G30A C31U U38C	0.18
G1A C10A A25U G29C G33A A41C	0.01
A14U G22U C37A U38G	0.01
